# Measurements reported in the supplement of paper PMC8728848.
# The list shows a part of the results.
# B1: PNGase F (Flavobacterium meningosepticum) (protein)
# chain: GIPAPADNTVNIKTFDKVKNAFGDGLSQSAEGTFTFPADVTAVKTIKMFIKNECPNKTCDEWDRYANVYVKNKTTGEWYEIGRFITPYWVGTEKLPRGLEIDVTDFKSLLSGNTELKIYTETWLAKGREYSVDFDIVYGTPDYKYSAVVPVVQYNKSSIDGVPYGKAHTLALKKNIQLPTNTEKAYLRTTISGWGHAKPYDAGSRGCAEWCFRTHTIAINNSNTFQHQLGALGCSANPINNQSPGNWTPDRAGWCPGMAVPTRIDVLNNSLIGSTFSYEYKFQNWTNNGTNGDAFYAISSFVIAKSNTPISAPVVTNLDPHHHHHH
# What was measured:
# Assay in all cases: glycan array binding signal (z-score within array); higher = stronger binding
# Conditions in all cases: glycan notation: IUPAC condensed, linker removed
# [1] = biological target: Fuc(a1-2)[Gal(a1-3)]Gal(b1-4)GlcNAc(b1-2)Man(a1-3)[Fuc(a1-2)[Gal(a1-3)]Gal(b1-4)GlcNAc(b1-2)Man(a1-6)]Man(b1-4)GlcNAc(b1-4)[Fuc(a1-6)]GlcNAc
# Outline: (§1)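 Glycan array data were curated from 3228 arrays in the Consortium for Functional Glycomics database and kept only where the protein sequence was available. Glycan names were converted to IUPAC-condensed notation, and columns mapping to the same glycan were averaged. The binding signal is a within-array Z-score, averaged across arrays of the same protein sequence at different concentrations or buffers and across linkers. Negative Z-scores can be read as non-binding.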
# [2] = biological target: Fuc(a1-2)[Gal(a1-3)]Gal(b1-4)GlcNAc(b1-3)GalNAc
# Outline: as §1
# [3] = biological target: Fuc(a1-2)[Gal(a1-3)]Gal(b1-4)GlcNAc(b1-3)[Fuc(a1-2)[Gal(a1-3)]Gal(b1-4)GlcNAc(b1-6)]GalNAc
# Outline: as §1
# [4] = biological target: Fuc(a1-2)[Gal(a1-3)]Gal(b1-4)GlcNAc(b1-6)GalNAc
# Outline: as §1
# [5] = biological target: Fuc(a1-2)[Gal(a1-3)]Gal(b1-4)[Fuc(a1-3)]Glc
# Outline: as §1
# [6] = biological target: Fuc(a1-2)[Gal(a1-3)]Gal(b1-4)[Fuc(a1-3)]GlcNAc
# Outline: as §1
# [7] = biological target: Fuc(a1-2)[Gal(a1-3)]Gal(b1-4)[Fuc(a1-3)]GlcNAc(b1-3)GalNAc
# Outline: as §1
# [8] = biological target: Fuc(a1-2)[Gal(a1-4)]Gal(b1-4)GlcNAc
# Outline: as §1
# [9] = biological target: Fuc(a1-2)[GalNAc(a1-3)]Gal
# Outline: as §1
# [10] = biological target: Fuc(a1-2)[GalNAc(a1-3)]Gal(b1-3)GalNAc(a1-3)[Fuc(a1-2)]Gal(b1-4)GlcNAc
# Outline: as §1
# [11] = biological target: Fuc(a1-2)[GalNAc(a1-3)]Gal(b1-3)GalNAc(b1-3)Gal(a1-4)Gal(b1-4)Glc
# Outline: as §1
# [12] = biological target: Fuc(a1-2)[GalNAc(a1-3)]Gal(b1-3)GlcNAc
# Outline: as §1
# [13] = biological target: Fuc(a1-2)[GalNAc(a1-3)]Gal(b1-3)GlcNAc(b1-2)Man(a1-3)[Fuc(a1-2)[GalNAc(a1-3)]Gal(b1-3)GlcNAc(b1-2)Man(a1-6)]Man(b1-4)GlcNAc(b1-4)GlcNAc
# Outline: as §1
# [14] = biological target: Fuc(a1-2)[GalNAc(a1-3)]Gal(b1-3)GlcNAc(b1-2)Man(a1-3)[Fuc(a1-2)[GalNAc(a1-3)]Gal(b1-3)GlcNAc(b1-2)Man(a1-6)]Man(b1-4)GlcNAc(b1-4)[Fuc(a1-6)]GlcNAc
# Outline: as §1
# [15] = biological target: Fuc(a1-2)[GalNAc(a1-3)]Gal(b1-3)GlcNAc(b1-3)GalNAc
# Outline: as §1
# [16] = biological target: Fuc(a1-2)[GalNAc(a1-3)]Gal(b1-3)GlcNAc(b1-6)GalNAc
# Outline: as §1
# [17] = biological target: Fuc(a1-2)[GalNAc(a1-3)]Gal(b1-4)Glc
# Outline: as §1
# [18] = biological target: Fuc(a1-2)[GalNAc(a1-3)]Gal(b1-4)GlcNAc
# Outline: as §1
# [19] = biological target: Fuc(a1-2)[GalNAc(a1-3)]Gal(b1-4)GlcNAc(b1-2)Man
# Outline: as §1
# [20] = biological target: Fuc(a1-2)[GalNAc(a1-3)]Gal(b1-4)GlcNAc(b1-2)Man(a1-3)[Fuc(a1-2)[GalNAc(a1-3)]Gal(b1-4)GlcNAc(b1-2)Man(a1-6)]Man(b1-4)GlcNAc(b1-4)GlcNAc
# Outline: as §1
# [21] = biological target: Fuc(a1-2)[GalNAc(a1-3)]Gal(b1-4)GlcNAc(b1-2)Man(a1-3)[Fuc(a1-2)[GalNAc(a1-3)]Gal(b1-4)GlcNAc(b1-2)Man(a1-6)]Man(b1-4)GlcNAc(b1-4)[Fuc(a1-6)]GlcNAc
# Outline: as §1
# [22] = biological target: Fuc(a1-2)[GalNAc(a1-3)]Gal(b1-4)GlcNAc(b1-3)Gal(b1-4)GlcNAc
# Outline: as §1
# [23] = biological target: Fuc(a1-2)[GalNAc(a1-3)]Gal(b1-4)GlcNAc(b1-3)Gal(b1-4)GlcNAc(b1-3)Gal(b1-4)GlcNAc
# Outline: as §1
# [24] = biological target: Fuc(a1-2)[GalNAc(a1-3)]Gal(b1-4)GlcNAc(b1-3)GalNAc
# Outline: as §1
# [25] = biological target: Fuc(a1-2)[GalNAc(a1-3)]Gal(b1-4)GlcNAc(b1-3)[Fuc(a1-2)[GalNAc(a1-3)]Gal(b1-4)GlcNAc(b1-6)]GalNAc
# Outline: as §1
# [26] = biological target: Fuc(a1-2)[GalNAc(a1-3)]Gal(b1-4)GlcNAc(b1-6)GalNAc
# Outline: as §1
# [27] = biological target: Fuc(a1-2)[GalNAc(a1-3)]Gal(b1-4)[Fuc(a1-3)]GlcNAc
# Outline: as §1
# [28] = biological target: Fuc(a1-2)[GalNAc(a1-3)]Gal(b1-4)[Fuc(a1-3)]GlcNAc(b1-3)GalNAc
# Outline: as §1
# [29] = biological target: Fuc(a1-2)[GalNAc(a1-4)]Gal(b1-4)GlcNAc
# Outline: as §1
# [30] = biological target: Fuc(a1-2)[GalNAc(b1-3)]Gal
# Outline: as §1
binder,measurement,setting,value
B1,glycan array binding signal (z-score),[1],-0.229
same,glycan array binding signal (z-score),[2],-0.226
same,glycan array binding signal (z-score),[3],1.46
same,glycan array binding signal (z-score),[4],0.476
same,glycan array binding signal (z-score),[5],-0.16
same,glycan array binding signal (z-score),[6],-0.164
same,glycan array binding signal (z-score),[7],-0.211
same,glycan array binding signal (z-score),[8],-0.115
same,glycan array binding signal (z-score),[9],-0.284
same,glycan array binding signal (z-score),[10],-0.27
same,glycan array binding signal (z-score),[11],-0.157
same,glycan array binding signal (z-score),[12],-0.123
same,glycan array binding signal (z-score),[13],-0.265
same,glycan array binding signal (z-score),[14],-0.189
same,glycan array binding signal (z-score),[15],-0.065
same,glycan array binding signal (z-score),[16],-0.178
same,glycan array binding signal (z-score),[17],-0.284
same,glycan array binding signal (z-score),[18],-0.261
same,glycan array binding signal (z-score),[19],-0.182
same,glycan array binding signal (z-score),[20],-0.463
same,glycan array binding signal (z-score),[21],-0.118
same,glycan array binding signal (z-score),[22],-0.363
same,glycan array binding signal (z-score),[23],-0.262
same,glycan array binding signal (z-score),[24],-0.167
same,glycan array binding signal (z-score),[25],-0.258
same,glycan array binding signal (z-score),[26],-0.348
same,glycan array binding signal (z-score),[27],-0.141
same,glycan array binding signal (z-score),[28],-0.212
same,glycan array binding signal (z-score),[29],-0.274
same,glycan array binding signal (z-score),[30],-0.254
